# Some of the results follow. The full chains were built here from the parent and the listed change. Inactive controls read about 0.05.
# B1: TEV protease; numbered along this chain (parent)
# chain: MGESLFKGPRDYNPISSSICHLTNESDGHTTSLYGIGFGPFIITNKHLFRRNNGTLVVQSLHGVFKVKDTTTLQQHLVDGRDMIIIRMPKDFPPFPQKLKFREPQREERICLVTTNFQTKSMSSMVSDTSCTFPSGDGIFWKHWIQTKDGQCGSPLVSTRDGFIVGIHSASNFTNTNNYFTSVPKNFMELLTNQEAQQWVSGWRLNADSVLWGGHKVFMVKPEEPFQPVKEATQL
# Variants of: B1
# Assay: raw area under fraction-flipped curve 0-4 h after induction (AUC4h, not background-subtracted), DNA-recorder readout of cleavage of the substrate (dimensionless); higher = more cleavage of the substrate by the protease variant
# Conditions: temperature: 34 °C; time window: 0-4 h after rhamnose induction
# Experimental: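 In vivo DNA recorder in E. coli TOP10(DE3) ΔrhaA at 34 °C. Each TEVp single-site mutant (parent TEVp 0) is paired with a single-site variant of the 7-mer TEVs (canonical ENLYFQ|S). The substrate sits between flexible linkers in a Bxb1-sfGFP-TEVs-SsrA fusion, so cleavage stabilises Bxb1 and speeds flipping of a recombination array, read by NGS. The value is the raw area under the fraction-flipped curve over 0-4 h after rhamnose induction (AUC4h), with ≥20 reads per time point. It is not background-subtracted; inactive controls average about 0.047.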
# 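Note: Bxb1 expression induced with 0.2% (w/v) L-rhamnose at OD600 near 0.5, cultures sampled hourly, flipped fraction per protease–substrate barcode pair counted by paired-end Illumina sequencing.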
Variant,area with substrate CNLYFQS,area with substrate DNLYFQS,area with substrate FNLYFQS,area with substrate GNLYFQS,area with substrate HNLYFQS,area with substrate INLYFQS,area with substrate KNLYFQS,area with substrate LNLYFQS,area with substrate MNLYFQS,area with substrate NNLYFQS,area with substrate PNLYFQS,area with substrate QNLYFQS,area with substrate SNLYFQS,area with substrate TNLYFQS,area with substrate VNLYFQS,area with substrate WNLYFQS,area with substrate YNLYFQS,area with substrate RNLYFQS
R204I,0.0655,0.0689,0.0735,0.0602,0.0603,0.0651,0.0695,0.0714,0.0728,0.0587,0.0641,0.0498,0.0678,0.0602,0.069,0.0576,0.0599,
R160C,0.0667,0.072,0.0718,0.074,0.0691,,0.0597,0.0593,0.0667,,0.0696,,0.0991,0.0699,,0.0491,0.0672,
G80M,0.0678,0.091,,0.0697,0.0597,0.0601,0.0555,,0.062,,0.0556,,0.0633,0.057,,0.0502,0.0629,0.0584
L48P,0.0517,,,0.0494,0.0505,0.0757,,0.0609,0.0393,0.0579,,,,,0.0597,0.053,0.0591,
D208Y,0.0658,,0.0625,0.0539,0.0625,0.0732,0.0583,0.0488,0.0575,,0.0578,,0.0654,0.0568,0.0587,0.0659,0.0409,
S32V,0.0629,,0.0654,0.0642,0.0564,0.0638,0.0523,0.0912,0.0735,0.0685,,0.0302,0.0592,0.0658,0.069,0.0576,0.0639,0.0533
K120V,0.0437,,0.0591,0.0653,0.0714,0.0817,,0.0604,0.065,0.0507,,,,0.0581,0.0527,0.0622,,
H21F,0.0699,0.0663,,0.0596,0.0619,0.0647,0.0609,0.0572,0.0702,0.0493,0.071,,0.0633,0.0678,,0.0496,0.0561,
H168R,0.0598,,,,0.0503,0.0448,,0.0599,,,0.0514,,0.0513,0.063,,0.0538,0.0748,
M88T,0.0524,0.006,,,0.0659,0.0604,,,,,,,0.0746,0.0658,,0.0659,,
P96R,0.0757,,,,,,,0.0378,0.0648,0.0704,,0.0666,0.062,,0.111,0.0631,,
H21E,0.0517,0.064,0.062,0.0659,0.0609,0.0675,0.058,0.0866,0.072,0.0525,0.0618,,0.081,0.0547,0.0404,0.0605,0.061,0.0419
C152T,0.0634,0.0662,,0.0641,0.0572,0.0687,0.0627,,0.0607,0.0534,,,0.0574,0.0328,,0.0585,,
K120N,0.0628,,,,0.0511,,0.0868,0.0649,,0.0741,,0.073,0.0763,0.0761,,0.0606,,
T174R,0.084,0.0554,0.0517,0.0471,,0.0649,0.0762,0.0535,0.0696,0.071,0.0628,0.0577,0.0574,0.0577,0.0636,0.0569,0.0573,
G136E,0.0712,0.0804,,,,,0.0596,0.0622,0.055,0.0708,0.0571,,0.0696,0.0582,0.0796,0.0459,,
N13C,0.0723,0.0751,0.0652,0.0675,0.0657,,0.0836,0.0718,0.0636,0.0575,0.0801,,0.0723,0.0538,,0.0547,0.0704,0.0593
E224L,0.0702,,,0.075,0.078,0.075,,0.06,0.0554,,0.0574,,0.0632,0.0372,,0.0689,,0.0784
T192N,0.0383,0.0752,0.064,0.0719,0.0679,0.082,0.0681,0.0655,0.0558,0.0722,0.064,,0.0352,0.0609,0.0692,0.0419,,0.0781
F41D,0.0569,0.0502,0.0499,,0.0287,,0.0509,0.0571,0.0548,,0.0672,,0.0508,0.0459,,0.0556,0.0469,0.0471
G136F,0.0659,,0.0606,0.0755,0.0675,,0.0586,0.0487,0.0491,0.0672,0.0756,,0.0616,0.0637,0.0891,0.0639,0.069,
V64M,0.0754,0.0869,0.0365,0.0571,0.0629,0.067,,0.063,,0.0669,0.0415,0.0715,0.0547,0.0775,0.0739,0.0625,,
S123W,0.0712,0.0795,,0.075,0.0623,0.0674,0.0629,0.064,0.0541,,0.0666,,0.0608,0.0718,,0.0633,0.0595,0.0524
W144D,0.0761,0.0752,0.0665,,0.031,0.0691,0.0876,0.0658,,,0.0787,,0.0718,0.0673,0.0781,0.0572,,
R106Q,0.0654,0.103,0.0598,0.0559,0.0654,0.081,0.0714,0.0626,0.0614,0.0712,0.0786,0.0649,0.0601,0.0708,0.0646,0.0692,0.047,
P155Q,0.05,0.0533,0.0553,0.0465,0.0701,0.0428,0.0608,0.0541,0.0469,0.0469,0.053,0.0351,0.0562,0.0547,,0.0414,0.0505,0.0396
W144G,0.0661,0.0757,,0.0626,0.0626,,0.0699,0.0696,,0.0602,,0.0709,0.0479,0.0715,,0.0431,0.0723,0.0651
